Test results: PMC8456368 (Bioorganic & medicinal chemistry, 2021)

Biological target: T1, GST-MKK3/VF-MYC PPI (Homo sapiens, UniProt P46734)
T1 sequence (P46734 1-347): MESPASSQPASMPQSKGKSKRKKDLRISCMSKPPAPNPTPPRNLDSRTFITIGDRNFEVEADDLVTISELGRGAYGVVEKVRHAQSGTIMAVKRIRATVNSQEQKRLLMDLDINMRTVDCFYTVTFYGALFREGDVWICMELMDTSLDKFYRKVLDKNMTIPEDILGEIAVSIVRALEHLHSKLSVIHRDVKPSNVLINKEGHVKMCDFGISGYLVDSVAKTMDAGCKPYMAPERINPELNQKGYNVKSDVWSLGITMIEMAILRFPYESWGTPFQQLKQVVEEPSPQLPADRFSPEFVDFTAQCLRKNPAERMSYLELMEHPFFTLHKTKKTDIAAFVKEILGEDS
Details: 20µM final concentration; vs DMSO control

N.N.[Cl][Pt][Cl] [Cisplatin]
inhibition of MKK3-MYC PPI in uHTS: 55%
